Experimental data reported in PubChem BioAssay AID686979 (National Center for Advancing Translational Sciences (NCATS), 2013).
Screen size: about 420,000 compounds; about 50,000 (12%) were called active. The inconclusive results got no clear call from the source; some entries with a clear call stand among them for comparison. Calls come from the whole dose curve; as a rule, active = well fitted inhibition curve with a large enough effect; inconclusive = small, poorly fitted or top-dose-only effect; inactive = flat fitted curve, though single readings scatter. No potency is given beside an inconclusive call; the fits are too rough. Some structures have more than one record in an assay (separate samples or runs), and their calls can disagree.
% is set by controls: 0 for no effect and ±100 for the full control effect; potency is the fitted concentration of half-maximal effect; tags give direction and shape of the fitted curve.

Assay: qHTS for Inhibitors of human tyrosyl-DNA phosphodiesterase 1 (TDP1): qHTS in cells in presence of CPT; note: nearly all actives have a fitted effect of over 55% in size
Conditions: chicken DT40 Tdp1-/-;hTDP1 cells + 20 nM CPT, ATP luminescence, 48 h; activity change, negative = growth inhibition: at 46.2 µM (top of the series) unless noted
How it was run: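 Chicken DT40 Tdp1-/- cells complemented with human TDP1, 400 cells/well, exposed to compounds plus 20 nM camptothecin for at least 48 h at 37 C; viability read as ATP content by CellTiter-Glo luminescence.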
In the case of `c1ccc(-c2onc(-c3ccco3)c2-c2ccc3c(c2)OCO3)cc1`, the Potency is reported as active: 10 µM.
With `CCCC1(C)Nc2ccccc2-c2nc3ccccc3n21` (stereo not given) the Potency was inconclusive [inhibitor, partial curve].
With `COc1ccc(Nc2nc(-c3cccc([N+](=O)[O-])c3)nc3ccccc23)cc1` the Potency was inconclusive [inhibitor, single point].
In the case of `Cc1ccsc1/C=N/NC(=O)c1ccccn1`, the Potency is reported as inconclusive [inhibitor, partial curve, poor fit].
With `Cc1cccc(C)c1NC(=O)C1CCCN1S(=O)(=O)c1ccccc1` (stereo not given) the Potency was “inactive”.
With `Cc1cccc(Cn2cc(S(=O)(=O)c3ccccc3)c(=O)c3cc(F)c(N4CCOCC4)cc32)c1` the Potency was active: 25.9 µM.
With `COc1ccc(CNC(=O)CSc2nc3ccc(C)cc3[nH]2)cc1` the Potency was inconclusive [inhibitor, single point].
In the case of `CN1/C(=C/c2cccc[n+]2CCO)Sc2ccccc21`, the Potency is reported as inconclusive [inhibitor, single point].
In the case of `COC(=O)c1ccc(CSc2nc3c(cnn3-c3ccc(C)c(C)c3)c(=O)[nH]2)o1`, the Potency is reported as inconclusive [inhibitor, single point].
In the case of `NC(Cc1ccc(F)cc1)c1csc(Nc2cc(Oc3ccccc3)ncn2)n1` (stereo not given), the Potency is reported as inconclusive [inhibitor, single point].
With `COc1ccc(OCc2cc(C(=O)NCc3cccc(C)n3)no2)c(Cl)c1` the “activity change, negative = growth inhibition” value was inactive: -23.9%.
With `CC1CC(Nc2ccccc2)c2ccccc2N1C(=O)c1cccnc1` (stereo not given) the Potency was active: 9.2 µM.
In the case of `CC(Oc1ccc(Br)cc1)C(=O)Nc1ccncc1` (stereo not given), the Potency is reported as inconclusive [inhibitor, single point].
In the case of `COc1cc(C(=S)N2CCOCC2)cc(OC)c1OC(=O)c1ccc(F)cc1`, the Potency is reported as inconclusive [inhibitor, partial curve].
For `C=CCn1c(SCC(=O)Nc2cccc(S(=O)(=O)N(C)c3ccccc3)c2)nnc1C1CC1`, the Potency was inconclusive [inhibitor, single point].
With `COc1cccc(C2c3c(-c4cc(Cl)c(C)cc4O)n[nH]c3C(=O)N2Cc2cccnc2)c1` (stereo not given) the Potency was inconclusive [inhibitor, single point].
With `CC(C)C[C@H](NC(=O)c1nc[nH]c1C(=O)NC(c1ccccc1)c1ccccc1)C(=O)OCc1ccccc1` the Potency was inconclusive [inhibitor, single point].
For `O=C(OCCOCCO)c1ccccc1Nc1cccc(C(F)(F)F)c1`, the Potency was inconclusive [inhibitor, single point].
For `COCCNC(=O)CN1CCC(n2c(C)nc3cc(C(F)(F)F)ccc32)CC1`, the activity change, negative = growth inhibition was inconclusive: -28.8% [inhibitor].
With `Cc1ccc2c(CC(=O)Nc3ccc(S(=O)(=O)N4CCCCC4C)cc3)coc2c1C` (stereo not given) the Potency was inconclusive [inhibitor, single point].
In the case of `COc1cc(C(=O)Nc2cc3c(cc2N2CCCCC2)n(C)c(=O)n3C)cc(OC)c1OC`, the Potency is reported as active: 20.6 µM.
For `Cc1cccc(Nc2nc(-c3ccccn3)cs2)n1`, the Potency was active: 5.17 µM.
For `COc1ccc(N2CCN(CCCNC(=O)c3nnc(Cc4ccc(F)cc4)o3)CC2)cc1`, the Potency was active: 16.4 µM.
With `Cc1cc(OCC(O)CN2CCN(C)CC2)ccc1C(C)C` (stereo not given) the Potency was inconclusive [inhibitor, single point].
With `COc1cccc(-c2cc(NC=O)c3ncc(-c4cccc(C(=O)N(C)C)c4)n3c2)c1` the Potency was inconclusive [inhibitor, single point].
For `O=c1c2c(n3cnnc3n1-c1ccccc1)-c1ccccc1CC21CCCCC1`, the Potency was inconclusive [inhibitor, single point].
In the case of `CCOC(=O)c1oc2ccc(S(=O)(=O)n3nc(-c4ccc(OC)cc4)cc3N)cc2c1C`, the Potency is reported as active: 2.91 µM.
For `CN(C)c1ccc(CNC(=O)Cc2ccc(NC(=O)N3CCCCc4ccccc43)cc2)cc1`, the activity change, negative = growth inhibition was inconclusive: -33.3% [inhibitor].
With `CNC(=O)C1CCN(S(=O)(=O)c2c(C)noc2/C=C/c2cccc(OC)c2)CC1` the “activity change, negative = growth inhibition” value was inactive: 2.52%.
In the case of `COc1cccc(-n2nc(C(=O)NCC3CCCO3)c3ccccc3c2=O)c1` (stereo not given), the “activity change, negative = growth inhibition” value is reported as inactive: -4.93%.
For `CCSc1ccccc1C(=O)N1CCN(c2ccc([N+](=O)[O-])cc2)CC1`, the Potency was inconclusive [inhibitor, single point].
In the case of `CCCc1ccc(OCc2ccc(C(=O)N3CCSCC3)o2)cc1`, the Potency is reported as inconclusive [inhibitor, single point].
In the case of `COc1cccc(C2CC(c3ccc(F)cc3)Nc3nc(N)nn32)c1` (stereo not given), the Potency is reported as inconclusive [inhibitor, full curve].
For `NC(=O)CC(NC(=O)Cc1ccc(Br)cc1)c1ccc(NC2CCCCCC2)c([N+](=O)[O-])c1` (stereo not given), the Potency was active: 18.4 µM.
In the case of `Cc1ccc(N2CCN(S(=O)(=O)c3nnc(NC(=O)c4ccccc4)s3)CC2)cc1`, the Potency is reported as inconclusive [inhibitor, single point].
With `Cc1ccc2c(c1)COc1c3ccc(C(=O)NCC4CC4)cc3nn1-2` the Potency was inconclusive [inhibitor, single point].
With `Cc1c(C)n(Cc2ccccc2)c2ccc(C(=O)NCC(C)c3ccccc3)cc12` (stereo not given) the Potency was inconclusive [inhibitor, single point].
For `Cc1cc(NC(=O)COc2ccccc2C)ccc1NC(=O)c1ccco1`, the Potency was active: 23.1 µM.
For `CCn1c(CN2CCN(c3cccc(C)c3C)CC2)n[nH]c1=S`, the Potency was inconclusive [inhibitor, single point].
With `FC(F)(F)c1cc(-c2ccc3c(c2)OCO3)nc(NCc2ccco2)n1` the Potency was inconclusive [inhibitor, partial curve].
In the case of `O=C1CCC[C@@H]2C=C[C@H](c3ccc(Br)cc3)[C@H]3CCN1[C@@H]32`, the Potency is reported as inconclusive [inhibitor, single point].
With `Cc1ccc(NN2C(=O)C=C(c3ccccc3)C2=O)cc1` the Potency was active: 5.8 µM.
For `O=C(COC(=O)[C@@H]1CCCN1C(=O)c1cccs1)Nc1cccc([N+](=O)[O-])c1`, the “activity change, negative = growth inhibition” value was inactive: -25.9%.
With `CCCCNC(=S)NNC(=O)c1cc(-c2ccncc2)nc2ccccc12` the “activity change, negative = growth inhibition” value was inactive: -15.8%.
With `CC(=O)c1sc(N/N=C/c2cccc([N+](=O)[O-])c2)nc1C` the “activity change, negative = growth inhibition” value was inactive: -18.1%.
For `CCCN(CC(=O)Nc1cc(Cl)ccc1Cl)C(=O)c1ccccc1SCC(=O)N1CCCC1`, the Potency was inconclusive [inhibitor, single point].
With `CCOC(=O)c1cc(CC)sc1NC(=O)CC1Sc2ccc(C(F)(F)F)cc2NC1=O` (stereo not given) the Potency was inconclusive [inhibitor, single point].
In the case of `Cc1ccccc1Cn1nc(C)c(NC(=O)c2noc3c2CCc2ccccc2-3)c1C`, the Potency is reported as active: 20.6 µM.
In the case of `CCN(CC(=O)Nc1ccc(C(C)=O)cc1)CC(=O)Nc1ccc2c(c1)OCCO2`, the Potency is reported as inconclusive [inhibitor, single point].
With `Cc1ccc(S(=O)(=O)N(C)C)cc1NC(=O)COC(=O)c1cccs1` the “activity change, negative = growth inhibition” value was inactive: -17.5%.
For `C/C(CC(=O)Nc1c(Cl)cccc1C(F)(F)F)=N\NC(=O)c1cnccn1`, the Potency was inconclusive [inhibitor, single point].
For `Cc1ccc(OCCCC(=O)NC(C)c2ccccc2)c(C)c1` (stereo not given), the Potency was inconclusive [inhibitor, single point].
In the case of `OC(CNCc1ccc(Cl)cc1)C(F)(F)F` (stereo not given), the “activity change, negative = growth inhibition” value is reported as inactive: 6.09%.
For `O=C(CNC(=O)c1ccc(Cl)c([N+](=O)[O-])c1)NCC1CCCO1` (stereo not given), the Potency was inconclusive [inhibitor, partial curve, poor fit].
In the case of `c1ccc(-c2nc3ccccn3c2NC2CCCC2)nc1`, the Potency is reported as inconclusive [inhibitor, single point].
In the case of `CC1Cc2nc(SCC(=O)NCc3ccccc3)n(Cc3ccccc3)c(=O)c2S1` (stereo not given), the Potency is reported as inconclusive [inhibitor, single point].
For `COc1cccc(OC)c1C(=O)N=c1sc2cc(S(C)(=O)=O)ccc2n1C`, the “activity change, negative = growth inhibition” value was inactive: -10.1%.
With `CCCc1nnc(-c2cc(OC)c(OC)c(OC)c2)o1` the Potency was inconclusive [inhibitor, partial curve].
For `CCOC(=O)C1CCN(C(=O)CN(c2ccc3c(c2)OCCO3)S(C)(=O)=O)CC1`, the “activity change, negative = growth inhibition” value was inactive: -13.7%.
With `CC1=C(C(=O)N(C)C)CC(CC(=O)NCCc2ccccn2)C(=O)N1Cc1ccc(F)cc1` (stereo not given) the “activity change, negative = growth inhibition” value was inactive: 0.0271%.
In the case of `Clc1ccc(Cc2ccc(SCc3ccccc3)nn2)c(Cl)c1`, the Potency is reported as inconclusive [inhibitor, single point].
With `Cn1c(CCNC(=O)c2ccccc2F)nnc1SCC(=O)Nc1nncs1` the “activity change, negative = growth inhibition” value was inactive: 5.77%.
With `CCOC(=O)c1sc2nc(CSc3ccccc3)nc(NCCN(C)C)c2c1C` the Potency was active: 16.4 µM.
For `Cn1c(NC(=O)c2ccccc2)c(-c2ccccn2)c(=O)c2ccccc21`, the “activity change, negative = growth inhibition” value was inactive: -21.1%.
In the case of `CCCCn1nc2cc(C(=O)NCc3cc(C(F)(F)F)cc(C(F)(F)F)c3)ccc2c1OCC`, the Potency is reported as inconclusive [inhibitor, single point].
In the case of `COc1ccc2c(c1)OC[C@H]1[C@H]2N2C(=O)c3ccc(C)cc3NC(=O)[C@@]2(C)[C@H]1c1ccccc1`, the Potency is reported as active: 23.1 µM.
With `CC(=O)C1=C(C)NC(SCC(N)=O)=C(C#N)C1c1cccs1` (stereo not given) the Potency was inconclusive [inhibitor, partial curve].
With `COc1ccc2[nH]c(=O)c(CN(C3CCCCC3)C(c3nnnn3Cc3ccco3)C(C)C)cc2c1` (stereo not given) the Potency was active: 11.6 µM.
With `O=C(Cn1cnc2nc3c(cc2c1=O)CCCC3)Nc1ccc(F)cc1Cl` the “activity change, negative = growth inhibition” value was inactive: 1.76%.
For `CC(C)CNC(=O)C1Nc2ccc(OC(F)(F)F)cc2C2C=CCC12` (stereo not given), the Potency was inconclusive [inhibitor, single point].
